These are yes or no findings as the source states them, for the method shown. For part of these data: Binding seen in cells or lysates may run through a third protein. Some entries that bind do so weakly or less than the wild type.
Experiments:
[1] = target: Wild-type human NEU1-Flag (human) (UniProt Q99519); assay: co-IP; NEU1-Flag constructs immunoprecipitated with mouse monoclonal anti-Flag on protein G sepharose (2 h, 4 °C) from crude membranes of co-transfected COS-7 cells solubilised in TEM buffer with 1% CHAPS; NEU1-HA detected by anti-HA western blot
[2] = target: NEU1-Flag A319V mutant (human) (UniProt Q99519); assay: as above
[3] = target: NEU1-Flag G321I mutant (human) (UniProt Q99519); assay: as above
[4] = target: NEU1-Flag G328I mutant (human) (UniProt Q99519); assay: as above
[5] = target: NEU1-Flag V330A mutant (human) (UniProt Q99519); assay: as above
NEU1-Cub-PLV (human) = NEU1-Cub-PLV (human) (UniProt Q99519); assay: two-hybrid; split-ubiquitin yeast two hybrid in THY.AP4 yeast; bait NEU1-Cub-PLV (Met-repressible), prey NEU1-NubG; growth on interaction-selective medium (CSM -Leu -Trp -Ade -His) with or without 5, 50 and 500 uM Met, 48 h at 30 °C

| binding [1] | binding [2] | binding [3] | binding [4] | binding [5] | binding (NEU1-Cub-PLV (human)) | Substance |
| --- | --- | --- | --- | --- | --- | --- |
| binds | no binding | no binding | no binding | no binding |  | NEU1-HA (from UniProt Q99519 48-415) (enzyme) |
|  |  |  |  |  | binds | NEU1-NubG (from UniProt Q99519 48-415) (enzyme) |
